Laboratory results taken from paper PMC12040169 (PLOS Biology, 2025).
The list shows a part of the results.

Test system: T1, C. trachomatis L2/434/Bu expressing GFP (CTL2-GFP)
T1 construct: L2/434/Bu GFP intracellular growth in HeLa cells
Parameters: species or system HeLa; C. trachomatis total inclusion area by high-content imaging, normalised to DMSO
Settings: total inclusion area; 28.5 h, 10 µM; inhibitor
Procedure, shortened: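 Following bulk GFP and resorufin fluorescence reads, infected cells were fixed, Hoechst-stained and imaged on a high-content platform. Inclusion total area and number per well served as growth proxies; nuclei counts indicated host viability. MICs were derived as for the fluorescence assay.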

| Compound | % of control remaining |
| --- | --- |
| COc1ccc(/C(N)=N/OC(=O)CN(C)S(=O)(=O)c2ccccc2)cc1 [CBK267683] | 78.2383 |
| Cc1cc2nc(N3CCN(C(=O)c4ccc(C#N)cc4)CC3)sc2cc1C [CBK287737] | 91.9472 |
| N#CCCCN1CCCN(c2cc(OCC3COc4ccccc4O3)ncn2)CC1 (stereo not drawn) [CBK083391T] | 72.9781 |
| COc1ccccc1CN(CC(C)(C)CN)C(=O)NCc1ccc(F)cc1 [CBK002470C] | 84.5239 |
| CC(=O)N1CC[C@@H](CC(=O)O)[C@@H](CC2=NCCc3ccc(C(C)(C)C)cc32)C1 [CBK289165] | 121.179 |
| CC1CCN(c2ccc([N+](=O)[O-])c(N3CCC(C)CC3)c2)CC1 [CBK001367] | 124.508 |
| CN(C)c1ccc(-c2ncnn2CC(F)(F)F)cn1 [CBK307215] | 79.5965 |
| O=[N+]([O-])c1ccc(N2CCN(CCO)CC2)cc1NCc1ccccc1 [CBK042200] | 98.9045 |
| Cc1ccc(CNc2nc3c(c(=O)[nH]c(=O)n3C)n2CC(O)COC(C)C)cc1 (stereo not drawn) [CBK139849] | 93.7337 |
| Cc1nc(N/C(=N/C(=O)c2ccccc2)NC(=O)c2ccccc2)nc2ccccc12 [CBK262529] | 90.9167 |
| COc1ccc(NC(=O)C2CC(=O)NC3=C2C(=O)CC(c2ccco2)C3)cc1 (stereo not drawn) [CBK270282] | 83.528 |
| O=c1[nH]c2ncc(-c3cccc4ncccc34)nc2n1Cc1ccccc1 [CBK064245] | 59.8429 |
| CC(=O)Nc1ccc(NC(=O)CCCC(=O)O)cc1 [CBK260984] | 85.7552 |
| N=C1/C(=C/c2cn(Cc3ccccc3)c3ccccc23)C(=O)N=C2SC(COc3ccccc3)=NN12 [CBK264150] | 95.3411 |
| Cc1cc(NCC2CCCO2)n2nc(C)c(-c3ccccc3)c2n1 (stereo not drawn) [CBK304531] | 59.0232 |
| Cc1cc(N2CCN(C(=O)OC(C)(C)C)CC2)nc(N)n1 [CBK001843] | 66.1128 |
| COc1ccc(C)cc1N(CC(=O)Nc1ccccc1C(=O)O)S(C)(=O)=O [CBK264009] | 122.743 |
| CC(C)C(=O)N1CC2(CCN(Cc3nc4ccccc4[nH]3)CC2)c2ccccc21 [CBK126719] | 99.6742 |
| CN1C(=O)CC2(C1=O)C(=O)N(CCCCOc1ccccc1)c1ccc(F)cc12 (stereo not drawn) [CBK075408] | 106.584 |
| Nc1nnc(SC2c3cccc4cccc(c34)C2NS(=O)(=O)c2ccc(Cl)cc2)s1 (stereo not drawn) [CBK266373] | 114.837 |
| c1ccc(CN2CCN(CCN3CCn4c3nc3ccccc34)CC2)cc1 [CBK265472B] | 88.38 |
| CCOc1ccccc1NC(=O)CSc1nc(N)cc(O)n1 [CBK268075] | 105.478 |
| CCCCNC(=O)CSc1ncccc1C(=O)NCc1cccnc1 [CBK071590] | 101.461 |
| COc1cc2ncc(C(=O)NCc3cccs3)c(O)c2cc1OC [CBK159998] | 50.0079 |
| O=c1n(C(c2ccccc2)c2ccccc2)ccn1S(=O)(=O)c1cccc(Cl)c1 [CBK106615] | 99.7955 |
| O=C(NC1CCN(Cc2ccccc2)CC1)c1cnc(-c2ccc(Cl)cc2)c(-c2cccnc2)c1 [CBK037602] | 98.0946 |

| Compound | % of control remaining |
| --- | --- |
| COc1cccc2cc(C(=O)NCCCSC)oc12 [CBK149793] | 97.6447 |
| O=c1[nH]c(=O)n([C@H]2C[C@@H](O)[C@@H](CO)O2)cc1CCO [CBK201239] | 99.4147 |
| CC(C)Nc1cncc(OCCCN(C)C)n1 [CBK115600] | 99.2318 |
| CC(CNC1CCCC1)C(O)(c1ccccc1)c1ccccc1 (stereo not drawn) [CBK012237C] | 49.2065 |
| CCCc1[nH]nc(O)c1Cc1ccccc1C(F)(F)F [CBK075037] | 78.8782 |
| COC(=O)COc1ccc(S(=O)(=O)N2CCC(C(N)=O)CC2)cc1 [CBK265993] | 132.489 |
| CC(C)[C@@H](CO)Nc1cncc(-c2ccc3ccccc3c2)n1 [CBK065546] | 97.0868 |
| Nc1nnc(CCS(=O)(=O)c2ccc(Br)cc2)s1 [CBK026286] | 51.2411 |
| O=C(O)c1ccccc1-c1ccc(/C=C2\S/C(=N\c3ccccc3)N(c3ccccc3)C2=O)o1 [CBK262566] | 99.7184 |
| CCOC(=O)C(NCCc1ccc(OC)c(OC)c1)(NC(=O)c1ccco1)C(F)(F)F (stereo not drawn) [CBK013715] | 58.4158 |
| COc1ccc(S(=O)(=O)NCCNC(=O)c2cc(Br)cnc2N(C)S(C)(=O)=O)cc1 [CBK076477] | 84.5392 |
| CN(C)C(CNc1nccnc1-c1ccccc1F)c1cccnc1 (stereo not drawn) [CBK037290] | 74.0077 |
| CCNC(=O)Nc1ccc(-c2ccc3c(c2)OCCCO3)c2ccccc12 [CBK083726] | 94.5582 |
| COc1ccc(CCN(Cc2cccnc2)CC(O)COc2cccc3c2CCCC3)cc1 (stereo not drawn) [CBK024545T] | 83.222 |
| Cn1c(=O)c2c(nc(CN3CCN(C(=O)c4ccco4)CC3)n2CCc2ccccc2)n(C)c1=O [CBK269278] | 108.133 |
| COc1cc(C(=O)N2CCC3(CC2)CC(=O)c2cc(-c4ccc(N(C)C)cc4)ccc2O3)cc(OC)c1C [CBK170663] | 134.956 |
| CCn1nc(C)c(C(C)NC(=O)c2ccnn2C(F)F)c1C (stereo not drawn) [CBK281535] | 93.1472 |
| CC(Oc1ccc2c(c1)OCO2)C(=O)NNC(=O)Nc1cccc(C(F)(F)F)c1 (stereo not drawn) [CBK266922] | 120.493 |
| CC1CNCCN1C(=O)c1ccnc(N2CCN(C)CC2)c1 (stereo not drawn) [CBK304122] | 98.7675 |
| O=C(COc1ccc(S(=O)(=O)N2CCCC2)cc1Cl)NCC1CCCO1 (stereo not drawn) [CBK268243] | 100.265 |
| Clc1ccc(/C=N/Nc2nnn[nH]2)c(Cl)c1 [CBK262034] | 108.642 |
| CCCN1CCC(CNC(=O)c2cc(C3CCCCC3)no2)CC1 [CBK283297] | 98.0075 |
| CC1(C)C(=O)OC(C(=O)c2ccc(Br)cc2)C(C)(C)C1=O (stereo not drawn) [CBK264600] | 107.292 |
| O=C(Nc1cccnc1)c1ccnc(Cl)c1 [CBK089829] | 68.2729 |
| Cc1cc(N(C)C)cc(C2CCCN(C(=O)C3CCC3)C2)n1 (stereo not drawn) [CBK282004] | 108.159 |
| CN1CCC(Cc2nc(-c3cccc(OC(F)F)c3)n(CCO)n2)CC1 [CBK307294] | 76.9103 |

| Compound | % of control remaining |
| --- | --- |
| CSCCN(C)c1nc2c(c(=O)[nH]1)Cc1ccccc1OC2 [CBK307523] | 85.6843 |
| CN(C)CC(=O)N1Cc2cccc3c2c(cn3S(=O)(=O)c2ccccc2)C1 [CBK155548T] | 86.0781 |
| CN(C)c1cccc(-c2nc(-c3ccc(C#N)cc3)cnc2N)c1 [CBK064049] | 89.123 |
| CCOC(=O)N[C@@H](CC1CCCCC1)C(=O)NCCc1ccc(S(N)(=O)=O)cc1 [CBK015131] | 103.765 |
| c1ccc(Cn2c(CN3CCCC3)nc3ccccc32)cc1 [CBK269612] | 96.8121 |
| CCN(CC)C(=O)Cn1ncc2c3oc(C)cc3n(C(C)C)c2c1=O [CBK282848] | 94.6436 |
| O=C(C[C@@H]1CCNC[C@@H]1Cc1cc(-c2ccccc2)on1)N1CCN(c2ccccn2)CC1 [CBK289150] | 84.9093 |
| O=S(=O)(Nc1nc2ccccc2nc1Nc1ccccc1)c1ccccc1 [CBK260953] | 96.8447 |
| Cc1cccc2cnc(C3CCN(C(=O)c4cnn(C)c4C)CC3)cc12 [CBK285196] | 107.102 |
| O=C(CSc1nc(-c2cccc([N+](=O)[O-])c2)cs1)NCC1CCCO1 (stereo not drawn) [CBK268020] | 107.592 |
| Cc1ccccc1C(=O)NC(NCC1CCCO1)C(Cl)(Cl)Cl (stereo not drawn) [CBK262273] | 101.459 |
| CC1(C)SC2c3ccccc3C(=O)N2[C@@H]1C(=O)N1CCC(C(=O)O)CC1 (stereo partly drawn) [CBK286760] | 123.353 |
| Cc1ccc([N+](=O)[O-])cc1NS(=O)(=O)Cc1ccc(Cl)cc1 [CBK111359] | 101.862 |
| CCCNc1nc(Nc2ccc(C)cc2)nc(N2CCOCC2)n1 [CBK266664] | 98.2508 |
| Cc1c(-c2cccc(C(=O)N(CCO)C3CCS(=O)(=O)C3)c2)cnn1C (stereo not drawn) [CBK307621] | 37.6019 |
| O=C(Oc1ccc2c(=O)c(Oc3ccc(-c4ccccc4)cc3)coc2c1)c1cccnc1 [CBK264479] | 88.8563 |
| O=C1CCCN1CCC1CCN(c2nccc(CCC(F)(F)F)n2)CC1 [CBK307534] | 58.8312 |
| COc1cccc(/C=C\c2onc(C)c2[N+](=O)[O-])c1OCC(=O)O [CBK269063] | 85.9526 |
| O=C1N=C(NC2CCCCCC2)SC1C(=O)N1CCCCCC1 (stereo not drawn) [CBK085513] | 93.7839 |
| COc1ccc(C2C(C(=O)c3ccc(C)cc3)=C(O)C(=O)N2CCN(C)C)cc1OC (stereo not drawn) [CBK264463] | 116.945 |
| Cc1oc2ccc(O)cc2c1C(=O)NC(C)(C)CN1CCCC(C)C1 (stereo not drawn) [CBK282601] | 114.466 |
| CCc1c(-c2cccc(C(=O)N3CCS(=O)(=O)CC3)c2)cnn1C [CBK307487] | 76.1174 |
| CCCn1c(Nc2nc3ccccc3n2C)nc2ccccc21 [CBK268310] | 85.7147 |
| COC(=O)C1C(=O)c2cc3c(cc2C1c1cc(OC)c(OC)c(OC)c1)OCO3 (stereo not drawn) [CBK200099] | 5.412 |
| Cc1ncsc1CCOc1cc(C(F)(F)F)ccn1 [CBK115785] | 83.426 |
| NC(=O)CC1Nc2cccc3cccc(c23)NC1=O (stereo not drawn) [CBK267560] | 93.1837 |
